The name of at least one read-out is uncertain.
System: Neospora caninum
Assay: Testing substances on infected Neospora caninum cell cultures
Conditions: host cells Vero or ED, evaluation 4 days after beginning of treatment, 5 days after infection

Row | SMILES | Assessment (microscopic evaluation), Neospora caninum in cell culture (Dose 10^−5 g/ml) | Assessment (microscopic evaluation), Neospora caninum in cell culture (Dose 10^−6 g/ml) | Assessment (microscopic evaluation), Neospora caninum in cell culture (Dose 10^−7 g/ml)
1 | C=C(C)CN(CC)c1c([N+](=O)[O-])cc(C(F)(F)F)cc1[N+](=O)[O-] [Enthalfluralin] | 2 | 2 | 1
2 | CC(C)OC(=O)Nc1ccccc1 [Propham, propham] |  | 2 | 1
3 | CCC(C)Nc1c([N+](=O)[O-])cc(C(C)(C)C)cc1[N+](=O)[O-] (centres unmarked) [Butralin] | 2 | 2 | 0
4 | CCCN(CC1CC1)c1c([N+](=O)[O-])cc(C(F)(F)F)cc1[N+](=O)[O-] [Profluralin, profluralin] | 2 | 2 | 0
5 | CCCN(CCC)c1c([N+](=O)[O-])cc(C(C)C)cc1[N+](=O)[O-] [Isopropalin, isopropalin] |  |  | 0
6 | CCN(CC)c1c([N+](=O)[O-])cc(C(F)(F)F)c(N)c1[N+](=O)[O-] [Dinitramid] | 2 | 2 | 2
7 | CCCN(CCC)c1c([N+](=O)[O-])cc(C(F)(F)F)cc1[N+](=O)[O-] [Trifluralin, trifluralin] |  | 2 | 1
8 | CCCN(CCC)c1c([N+](=O)[O-])cc(S(C)(=O)=O)cc1[N+](=O)[O-] [Nitralin, nitralin] | 2 | 2 | 0
9 | CCCCN(CC)c1c([N+](=O)[O-])cc(C(F)(F)F)cc1[N+](=O)[O-] [Benfluralin, benfluralin] | 2 | 2 | 1

Source: US6753298B2, “Agents for combating Neospora spec” (Bayer AG, priority 1997, dated 2004)
